# From article PMC4336329 (PLoS ONE, 2015)
# In all, about 310,000 compounds went through this assay and about 2,200 (0.71%) showed an effect of 50% or more. Effects have a minus sign here. Some of the results follow.
# Target: human ether-à-go-go-related gene (hERG) potassium channel (human, UniProt Q12809)
# Assay: primary screen, population patch clamp on CHO cells stably expressing hERG
# Sequence of human ether-à-go-go-related gene (hERG) potassium channel (Q12809 whole entry, looked up): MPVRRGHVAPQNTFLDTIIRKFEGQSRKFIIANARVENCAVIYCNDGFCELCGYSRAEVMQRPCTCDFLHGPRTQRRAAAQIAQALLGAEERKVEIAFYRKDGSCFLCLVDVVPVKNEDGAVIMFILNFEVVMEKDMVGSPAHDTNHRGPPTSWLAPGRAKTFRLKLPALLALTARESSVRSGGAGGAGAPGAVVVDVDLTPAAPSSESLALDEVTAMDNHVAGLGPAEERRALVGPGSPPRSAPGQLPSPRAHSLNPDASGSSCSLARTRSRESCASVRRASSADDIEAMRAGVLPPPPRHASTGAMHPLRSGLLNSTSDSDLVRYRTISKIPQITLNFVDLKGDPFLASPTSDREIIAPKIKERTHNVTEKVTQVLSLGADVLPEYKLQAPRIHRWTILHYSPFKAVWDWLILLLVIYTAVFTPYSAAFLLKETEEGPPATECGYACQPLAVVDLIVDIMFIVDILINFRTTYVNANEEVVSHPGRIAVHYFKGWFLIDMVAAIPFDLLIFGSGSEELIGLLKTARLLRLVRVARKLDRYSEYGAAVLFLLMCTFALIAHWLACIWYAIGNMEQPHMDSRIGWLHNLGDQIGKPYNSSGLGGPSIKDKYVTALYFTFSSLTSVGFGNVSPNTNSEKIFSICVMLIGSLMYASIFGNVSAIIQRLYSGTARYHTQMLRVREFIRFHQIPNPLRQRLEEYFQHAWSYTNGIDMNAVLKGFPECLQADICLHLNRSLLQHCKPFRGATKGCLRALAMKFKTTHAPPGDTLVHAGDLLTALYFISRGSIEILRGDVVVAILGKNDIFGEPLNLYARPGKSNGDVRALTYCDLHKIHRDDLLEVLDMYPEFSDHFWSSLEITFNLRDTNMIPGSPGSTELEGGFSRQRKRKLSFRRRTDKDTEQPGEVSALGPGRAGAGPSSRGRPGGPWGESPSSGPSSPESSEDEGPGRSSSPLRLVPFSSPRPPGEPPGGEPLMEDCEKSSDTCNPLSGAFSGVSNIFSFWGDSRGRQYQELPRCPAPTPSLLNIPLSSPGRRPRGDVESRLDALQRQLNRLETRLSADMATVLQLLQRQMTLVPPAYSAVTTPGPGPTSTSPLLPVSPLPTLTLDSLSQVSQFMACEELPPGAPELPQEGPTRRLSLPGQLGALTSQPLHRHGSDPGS
row,Compound,"hERG current change (%, negative = inhibition) at 1uM"
1,Cc1ccc(C2C3=C(CC(C)(C)CC3=O)NC3=C2C(=O)CC(C)(C)C3)o1,9%
2,CC(C)NC(=O)CN1C(=O)c2cccc3cccc1c23,-0.827%
3,O=C(N/N=C/c1sc(N2CCOCC2)nc1-c1ccccc1)c1ccccc1Cl,9.97%
4,O=C(Cc1ccccc1)NCCSC1CCCCC1,12.3%
5,CCOc1ccc(/C=C2/Sc3ccc(C(=O)NCC4CCCO4)cc3N(C)C2=O)cc1OC (centres unmarked),10.1%
6,Cc1nnc(SCC2=C(C(=O)O)N3C(=O)C(NC(=O)Cn4nc(C(F)F)c(Cl)c4C)C3SC2)s1 (centres unmarked),5.02%
7,Cc1ccccc1-n1c(-c2ccc3ccccc3n2)n[nH]c1=S,10.8%
8,COc1ccc2cc(C3CC(c4ccco4)=NN3S(=O)(=O)c3ccccc3)c(Cl)nc2c1 (centres unmarked),11.4%
9,O=C(CN1C(=O)NC2(CCCC2)C1=O)N1CCN(S(=O)(=O)c2ccccc2Br)CC1,3.93%
10,Cc1ccc(F)cc1NC(=O)CCC(=O)c1cccs1,10.6%
11,O=C(COC(=O)c1ccccn1)Nc1cccc2ccccc12,17.5%
12,COC(=O)c1ccccc1NC(=O)CNc1cc(OC)c(OC)cc1C,-11.1%
13,C=CCN1CC(C(=O)N2CCC(Cc3ccc(Cl)cc3)(C(=O)OCC)CC2)CC1=O (centres unmarked),-22.1%
14,CCc1ccc2nc(N(CCN(C)C)C(=O)c3ccc4ccccc4c3)sc2c1.Cl,8.31%
15,CCOc1ccc(-n2nc3ccc(N)cc3n2)cc1,11.9%
16,Cc1ccc(C2=Nc3ccccc3NC(C)(c3ccc(C)o3)C2)o1 (centres unmarked),3.88%
17,COc1ccc(C2NN=C(c3ccc(C)cc3)S2)cc1 (centres unmarked),11.7%
18,Cc1c(C)c2ccc(OC(C)C(=O)NCCCn3ccnc3)c(C)c2oc1=O (centres unmarked),5.94%
19,CC(=Nc1ccccc1)C1=C(O)CCCC1=O,16.2%
20,N=c1oc2ccccc2cc1-c1nc(-c2ccc(Cl)cc2)cs1,8.79%
21,O=C(COC(=O)c1ccc(F)cc1)Nc1ccccc1N1CCOCC1,4.75%
22,Cc1ccc(N2C(=O)c3n[nH]c(C)c3C2c2cccnc2)cc1 (centres unmarked),7.27%

row,Compound,"hERG current change (%, negative = inhibition) at 1uM"
1,O=C(NCC(=O)N(Cc1cccs1)C(C(=O)NC1CCCCC1)c1ccco1)c1ccco1 (centres unmarked),-1.29%
2,O=C(COC(=O)CNC(=O)c1ccc(Cl)c([N+](=O)[O-])c1)NC(=O)c1ccccc1,9.95%
3,Cc1cccc(N(C2C=CS(=O)(=O)C2)S(=O)(=O)c2ccccc2)c1 (centres unmarked),14.2%
4,Cc1cccc(NC(=O)C(=O)NCC2CCCN2S(=O)(=O)c2ccccc2)c1 (centres unmarked),12.8%
5,N#Cc1c2c(c(NCc3cccnc3)n3c1nc1ccccc13)CCC2,-5.45%
6,CC(C)OCCCN1CC(=O)N2C(c3ccccc3)c3[nH]c4ccccc4c3C[C@H]2C1=O (some centres unmarked),-1.53%
7,Cc1ccsc1C(=O)C1CCCN(Cc2ccc(-n3cccn3)cc2)C1 (centres unmarked),-3.18%
8,CC(O)CNCCCOc1ccc(Cl)cc1C(C)(C)C.O=C(O)C(=O)O (centres unmarked),11.6%
9,Cc1ccccc1NC1=NC(C)(C)N=C(N)N1,16.8%
10,CCOc1ccc(CCNC(=O)c2nnn(CC(=O)Nc3ccc(OC)c(OC)c3)c2N)cc1OCC,14.5%
11,Nc1c(C(=O)NCCN2CCOCC2)c2nc3ccccc3nc2n1Cc1ccco1,-42.6%
12,Cc1cc(Nc2c(C)n(C)n(-c3ccccc3)c2=O)n2c(nc3ccccc32)c1C#N,-9.52%
13,CCC(C(=O)NC1CCN(C)CC1)c1ccccc1 (centres unmarked),17%
14,Cc1cccn2c(CNC3CCCc4ccccc43)c(C(=O)N3CCOCC3)nc12 (centres unmarked),10.7%
15,Cc1ccc(-c2nnc(CSc3nnc(C)s3)o2)cc1,-0.13%
16,Cc1ccc2[nH]c(C(=O)N3CCN(C=O)CC3)cc2c1,13.1%
17,Cc1ccc(C)c(N(Cc2ccccc2F)S(C)(=O)=O)c1,-0.496%
18,O=C(O)C(=O)O.O=S(=O)(c1cccc(C(F)(F)F)c1)N(CCCN1CCOCC1)Cc1cccs1,-16.5%
19,CCCCCCn1c(N2CCN(c3ccccc3)CC2)nc2c1c(=O)n(C)c(=O)n2C,-8.66%
20,CCN(C(=O)COC(=O)/C=C/c1cccc([N+](=O)[O-])c1)c1ccccc1,8.36%
21,CCOc1ccc(C(=O)N(C)C2CCS(=O)(=O)C2)cc1 (centres unmarked),21.6%
22,CSc1ccc(CN2CCC(Cc3ccccc3)CC2)cc1,-29.6%
